Biological target: the molecule itself
Test: non-reducing SDS-PAGE with tau immunoblot (disulfide-linked oligomers); cell or brain lysates in Laemmli buffer without BME, 10 ug on 10% SDS-PAGE, anti-tau immunoblot; cells basal or treated with tauK18^P301L or forskolin and MB, LMTM or levosimendan; mice given vehicle, LMTM or levosimendan

B1: tau of primary hippocampal neurons (rat) (natural protein)
chain: not shown
notes: endogenous tau of rat neurons; also called tau in primary neurons; source: endogenous, lysate of primary hippocampal neurons from Day 18 embryonic Sprague-Dawley rats
fold level of disulfide-linked oligomers (tauK18^P301L against basal): 1.8 fold
ratio of disulfide-linked oligomers to monomers (basal): 2.4 fold

Source: PMC10073126, “Levosimendan inhibits disulfide tau oligomerization and ameliorates tau pathology in Tau^P301L-BiFC mice” (Experimental & Molecular Medicine, 2023)
